The campaign covered roughly 48,000 compounds. About 450 (0.94%) were called active. The inconclusive results got no clear call from the source; some entries with a clear call stand among them for comparison. Calls come from the whole dose curve; as a rule, active = well fitted inhibition curve with a large enough effect; inconclusive = small, poorly fitted or top-dose-only effect; inactive = no such curve, though single readings can be large or run the other way. Potencies of inconclusive entries are doubtful fits and often do not repeat.
Experiment: Primary qHTS for Identification of Small Molecule Inhibitors of Huntingtin Promoter Activity; note: nearly all actives have a fitted effect of over 50% in size
Details: HEK293 HTT promoter firefly luciferase reporter (activity 0% = vehicle and -100% = no light), 24 h; activity change, negative = inhibition: at 57.5 µM (top of the series)
Procedure, shortened: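 Quantitative HTS used concentration series of up to 57.5 uM final on HEK293 luciferase reporter cells, 24 h at 37 degrees C. Readout was Dual-Glo firefly luminescence.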
Potency is the fitted concentration of half-maximal effect; tags give direction and shape of the fitted curve.

SMILES	Potency	activity change, negative = inhibition
CCn1c(CC2C(=O)Nc3ccccc32)nc2ccccc2c1=O (stereo unspecified)	inconclusive: 8.91 µM [inhibitor, partial curve, poor fit]	
CCc1c(C)sc2c1CCN(Cc1ccccc1C#N)C2c1ccccc1 (stereo unspecified)		inactive: -12.6%
COc1ccc(-n2cc(-c3ccc4c(c3)OCO4)n(CC(=O)Nc3cc(Cl)ccc3C)c2=O)cc1		inactive: 26.5%
COc1ccc(-n2nc3ccc(NC(=O)c4cccc(OCCC(C)C)c4)cc3n2)cc1	inconclusive: 2.24 µM [inhibitor, full curve]	
CCOC(=O)c1cnc2ccc(OC)cc2c1Nc1ccc(OCc2ccccc2Cl)cc1	inconclusive: 25.1 µM [inhibitor, partial curve, poor fit]	
COc1ccc(C)cc1NC(=O)c1nnn(Cc2cccc(Br)c2)c1N	inconclusive: 7.08 µM [inhibitor, partial curve]	
CCOC(=O)N1CCN(Cc2nc3cc(NC(=O)c4ccccc4Cl)ccc3n2C(C)C)CC1	inconclusive: 5.62 µM [inhibitor, partial curve, poor fit]	
CCC(=O)N1CCc2cc(S(=O)(=O)NCc3ccc(C)cc3)ccc21		inactive: -25.1%
COc1ccccc1NC(=O)C1=C(C)Nc2nc3ccccc3n2C1c1ccccc1Cl (stereo unspecified)		inactive: -2.52%
Cc1cc(OCC(=O)N2CCC(c3nc4ccccc4s3)CC2)ccc1Cl	inconclusive: 39.8 µM [inhibitor, single point]	
Cc1cc2n(n1)CCCN2C(=O)Nc1ccc(F)c(Cl)c1		inactive: -1.15%
COc1cc2nc(NC(=O)c3ccc(S(=O)(=O)N4CCc5ccccc54)cc3)sc2cc1OC	active: 12.6 µM	
CCN(CCCNC(=O)c1cc2c(=O)n(CC)c3ccccc3c2s1)Cc1ccccc1		inactive: 3.33%
COc1ccc(-c2ccc3c(N4CCOCC4)nc(N4C[C@@H](C)O[C@@H](C)C4)nc3n2)cc1CO	inconclusive: 3.85 µM [inhibitor, full curve]	
Cc1nn2c(=O)cc(COC(=O)c3ccc(NC(=O)COc4ccc(Cl)cc4)cc3)nc2s1	inconclusive: 31.6 µM [inhibitor, partial curve, poor fit]	
CCOc1ccc(CCNc2ncnc3onc(-c4ccc(Cl)cc4)c23)cc1	active: 14.1 µM	
COc1ccc(Nc2sc(C(=O)c3ccccc3)c(N)c2C(=O)Nc2cc(C)ccc2C)c(OC)c1	inconclusive: 15.8 µM [inhibitor, partial curve, poor fit]	
COc1cccc(CNC(=O)CCCN2C(=O)CSc3c2c(C)nn3-c2ccccc2)c1OC	inconclusive: 39.8 µM [inhibitor, partial curve, poor fit]	
CCn1c(NCc2ccc(OC)c(OC)c2)nc2ccccc21	inconclusive: 25.1 µM [inhibitor, single point]	
CCOc1ccccc1CNC(=O)c1ccc2c(c1)sc1nc(-c3ccccc3)cn12		inactive: 10.5%
Cc1ccc(Cl)cc1N1CCN(CCCNc2ncnc3onc(-c4ccc(Cl)cc4)c23)CC1	inconclusive: 22.4 µM [inhibitor, single point]	

SMILES	Potency	activity change, negative = inhibition
CCOC(=O)c1cc(-c2ccccc2)n(CCC(=O)Nc2cc(OCC)ccc2OCC)c1C	inconclusive: 39.8 µM [inhibitor, single point]	
CCCC(=O)C1=C(c2ccc(C)cc2)N(C(=O)CCC)n2cnnc2S1	inconclusive: 39.8 µM [inhibitor, single point]	
Cc1ccc(OCCn2cc(C(=O)c3ccco3)c3ccccc32)cc1C	inconclusive: 35.5 µM [inhibitor, partial curve]	
CCOc1ccc(NC(=O)c2cc(S(=O)(=O)N3CCCC3)c[nH]2)cc1	inconclusive: 25.1 µM [inhibitor, partial curve, poor fit]	
Cc1sc(-n2cccc2)c(C(C)NC(=O)Nc2ccccc2Cl)c1C (stereo unspecified)	inconclusive: 31.6 µM [inhibitor, single point]	
CCOc1ccc(Br)cc1S(=O)(=O)Nc1cccc(-c2ccc(OC)nn2)c1	inconclusive: 20 µM [inhibitor, partial curve, poor fit]	
COc1ccc(-n2c(=O)c3c4c(sc3n(Cc3ccc(C(C)(C)C)cc3)c2=O)CCC4)c(OC)c1	inconclusive: 20 µM [inhibitor, partial curve, poor fit]	
COc1cc(NC(C)CCCN)c2ncccc2c1 (stereo unspecified)		inactive: -16%
O=C(Nc1cc(Cl)cc(Cl)c1)c1cc(S(=O)(=O)N2CCC3(CC2)OCCO3)ccc1F	inconclusive: 25.1 µM [inhibitor, partial curve, poor fit]	
CC(C)c1ccc(Cn2ccc3c4c(N)nc(NC5CC5)nc4ccc32)cc1		inactive: -18.8%
Cc1ccc(C)c(-n2nnc(C(=O)Nc3ccc(Br)cc3)c2C)c1	inconclusive: 25.1 µM [inhibitor, single point]	
Cc1cc2c(cc1S(=O)(=O)NCc1ccccc1Cl)OCC(=O)N2		inactive: -25.7%
Cc1ccc(-n2ncc3c(Nc4cccc(C(F)(F)F)c4)ncnc32)cc1C	inconclusive: 31.6 µM [inhibitor, partial curve, poor fit]	
COc1cccc(-c2nc(CS(=O)(=O)CC(=O)NCCc3ccc(Cl)cc3)c(C)o2)c1	inconclusive: 39.8 µM [inhibitor, single point]	
CC(C)c1ccc(NC(=O)c2cnc3sc(N4CCOCC4)nn3c2=O)cc1	inconclusive: 2.51 µM [inhibitor, full curve, poor fit]	
COc1ccc(OC)c(NC(=O)Cn2cnc3onc(-c4ccc(Cl)cc4)c3c2=O)c1		inactive: -46.8%
CCN(Cc1ccccc1)C(=O)Cn1c(=O)n(-c2ccc(Cl)c(Cl)c2)c(=O)c2c(C)c(C(=O)N(C)C)sc21	inconclusive: 7.08 µM [inhibitor, single point]	
COc1ccc(CCNC(=O)c2cc(=O)c3ccc(C)cc3o2)cc1OC	inconclusive: 25.1 µM [inhibitor, partial curve]	
COc1ccc(C(=O)Nc2ccc3oc(-c4cccnc4)nc3c2)cc1OC	inconclusive: 28.2 µM [inhibitor, single point]	
O=C(COC(=O)c1cccc(NC(=O)c2ccc(Br)cc2)c1)c1ccc(Cl)cc1	inconclusive: 39.8 µM [inhibitor, single point]	
CC(C)Oc1ccc(CNC(=O)c2ccc(NC(=O)N3CC(C)Sc4ccccc43)cc2)cc1 (stereo unspecified)	inconclusive: 10 µM [inhibitor, partial curve, poor fit]	

SMILES	Potency	activity change, negative = inhibition
CC1CCc2onc(C(=O)N3CCN(c4cccc(Cl)c4)CC3)c2C1 (stereo unspecified)	inconclusive: 31.6 µM [inhibitor, single point]	
Cc1cc(C)c(S(=O)(=O)NCC(c2ccco2)S(=O)(=O)c2cccs2)c(C)c1 (stereo unspecified)	inconclusive: 39.8 µM [inhibitor, single point]	
Cc1cc(Br)cc2c1N(Cc1ccccc1OC(C)C)C(=O)C2=O	inconclusive: 39.8 µM [inhibitor, single point]	
CCc1cccc(C)c1NC(=O)c1cnn(-c2ccc(OC)cc2)c1C1CCN(C(=O)OC(C)(C)C)CC1	inconclusive: 31.6 µM [inhibitor, single point]	
CC1CCCN(CCCNC(=O)c2cc3c(Cl)nc4ccccc4c3s2)C1 (stereo unspecified)		inactive: -27%
Cc1ccc(C2c3[nH]c4ccccc4c3CCN2C(=O)CSCc2ccc(F)cc2)cc1 (stereo unspecified)	inconclusive: 25.1 µM [inhibitor, single point]	
O=C(NCCc1csc(-c2ccc(F)cc2)n1)c1cccc(F)c1	inconclusive: 20 µM [inhibitor, single point]	
Cc1cccc(NC(=O)C2CCN(S(=O)(=O)c3ccc4c(c3)CCCN4C(=O)C3CCC3)CC2)c1	inconclusive: 25.1 µM [inhibitor, partial curve, poor fit]	
COc1cc(NC(=O)CSc2nc(-c3ccc(C(C)C)cc3)no2)cc(OC)c1	inconclusive: 2.82 µM [inhibitor, full curve, poor fit]	
COc1ccc(NC(=O)CSc2cn(CCNC(=O)c3c(F)cccc3F)c3ccccc23)cc1	inconclusive: 39.8 µM [inhibitor, single point]	
COc1ccc(-c2noc(-c3ccc(NC4CCCC4)c([N+](=O)[O-])c3)n2)cc1OC		inactive: -9.47%
COc1ccc(C2=Nc3ccc(OC(F)(F)F)cc3NC(c3cccnc3)=N2)cc1	inconclusive: 20 µM [inhibitor, partial curve, poor fit]	
COC(=O)C=CC(=O)OC	inconclusive: 4.32 µM [inhibitor, full curve]	
O=C(c1cccc(Cl)c1)N1c2ncnn2C2(CCCCC2)[C@@H]2CCCC[C@@H]21	inconclusive: 28.2 µM [inhibitor, partial curve, poor fit]	
Cc1ccc2c(c1)N(C(=O)N1CCC(C(=O)NCCc3ccccc3)CC1)CC(C)O2 (stereo unspecified)	inconclusive: 25.1 µM [inhibitor, partial curve, poor fit]	
CCOc1ccc(-c2nonc2NC(=O)c2oc3cc(C)ccc3c2C)cc1OCC		inactive: -15.7%
CCC(C=C[C@@H]1OC(=O)C=C[C@H]1C)=C[C@H](C)CC=CC(C)=C[C@@H](C)C(=O)[C@@H](C)[C@H](O)[C@@H](C)CC(C)=CC(=O)O	inconclusive: 0.256 µM [inhibitor, full curve]	
O=C(Nc1nc2n(n1)C(c1ccccc1)C=C(c1ccc(Cl)cc1)N2)c1ccco1 (stereo unspecified)	inconclusive: 39.8 µM [inhibitor, single point]	
Cc1ccc(CN(Cc2ccco2)C(=O)COc2cccc(C)c2C)o1	inconclusive: 35.5 µM [inhibitor, single point]	

From PubChem BioAssay AID1508623 (National Center for Advancing Translational Sciences (NCATS), 2021)
